Hit rate of the full screen: of about 310,000 compounds, about 14,000 (4.5%) showed an effect of 50% or more. The effect is printed as a negative number. The list shows a part of the results.
Target: human ether-à-go-go-related gene (hERG) potassium channel (human, UniProt Q12809)
Assay: primary screen, population patch clamp on CHO cells stably expressing hERG
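Note: peak tail current of the secondary pulse compared with the same well before compound.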

human ether-à-go-go-related gene (hERG) potassium channel, sequence (Q12809 whole entry, looked up): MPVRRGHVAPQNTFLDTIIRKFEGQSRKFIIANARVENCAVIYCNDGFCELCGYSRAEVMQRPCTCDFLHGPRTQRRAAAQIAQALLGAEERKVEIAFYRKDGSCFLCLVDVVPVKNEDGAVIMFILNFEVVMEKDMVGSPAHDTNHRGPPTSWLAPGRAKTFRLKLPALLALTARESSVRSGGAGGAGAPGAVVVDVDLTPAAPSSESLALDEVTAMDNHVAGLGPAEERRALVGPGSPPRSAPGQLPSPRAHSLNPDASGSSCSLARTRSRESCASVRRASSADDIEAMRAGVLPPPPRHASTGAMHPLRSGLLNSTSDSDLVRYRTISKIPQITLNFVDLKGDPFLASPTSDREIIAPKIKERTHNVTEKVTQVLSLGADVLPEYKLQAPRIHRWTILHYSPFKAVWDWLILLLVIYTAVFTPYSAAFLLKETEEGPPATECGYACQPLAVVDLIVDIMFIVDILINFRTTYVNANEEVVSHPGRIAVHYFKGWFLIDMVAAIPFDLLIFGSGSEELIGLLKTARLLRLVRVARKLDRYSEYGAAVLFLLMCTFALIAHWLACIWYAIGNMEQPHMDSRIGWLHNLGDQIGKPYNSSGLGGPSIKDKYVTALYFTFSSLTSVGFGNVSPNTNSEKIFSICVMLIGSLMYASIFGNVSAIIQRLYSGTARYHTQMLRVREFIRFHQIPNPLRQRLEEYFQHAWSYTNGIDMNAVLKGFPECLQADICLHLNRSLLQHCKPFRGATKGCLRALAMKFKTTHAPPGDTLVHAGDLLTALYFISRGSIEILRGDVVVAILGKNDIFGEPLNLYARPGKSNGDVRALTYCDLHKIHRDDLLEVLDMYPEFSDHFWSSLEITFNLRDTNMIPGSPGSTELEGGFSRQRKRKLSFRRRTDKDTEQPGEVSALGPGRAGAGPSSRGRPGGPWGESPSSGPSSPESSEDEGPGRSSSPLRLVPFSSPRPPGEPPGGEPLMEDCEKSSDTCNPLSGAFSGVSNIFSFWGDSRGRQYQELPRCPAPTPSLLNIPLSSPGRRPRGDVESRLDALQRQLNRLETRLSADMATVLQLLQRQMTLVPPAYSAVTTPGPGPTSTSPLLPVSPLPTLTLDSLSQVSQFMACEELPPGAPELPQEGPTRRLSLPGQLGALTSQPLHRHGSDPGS

SMILES | hERG current change (%, negative = inhibition) at 10uM [%]
NC(=O)c1nsc(C(=O)N(c2cccc(F)c2)C(C(=O)NC2CCCC2)c2ccc(O)cc2)c1N (stereo not shown) | 23
CCC(=O)Nc1cccc(NC(=O)CSc2nnnn2C2CCCC2)c1 | -10.6
O=C(NC1CCCc2ccccc21)c1c(F)cccc1Cl (stereo not shown) | 8.95
Nc1ccc(NC(=O)c2ccccc2)c2c1C(=O)c1ccccc1C2=O | 2.65
Cn1c(=O)c2c(nc(SCC(=O)c3ccc(F)cc3)n2C)n(C)c1=O | -3.64
Cc1cc(C(=O)CSc2nc3ccccc3[nH]2)c(C)n1C | -17.7
Cc1ccccc1CNC(=O)c1ccccc1N(C)S(=O)(=O)c1ccccc1 | 11.9
Cc1ccc(NC(=O)Cn2nc(C(F)(F)F)c3c2CCC3)cc1 | 17.9
O=C(O)CCc1ccc(S(=O)(=O)NCCc2ccccc2)cc1 | -2.31
C[C@@H](C(=O)NCC1CC1)[C@H]1C[C@]1(C)[C@H](NC(=O)OCc1ccccc1)c1ccccc1 | -7.08
O=C(C1CCN(S(=O)(=O)N2CCOCC2)CC1)N1CCN(c2ccc(F)cc2)CC1 | -30
O=C(NC(Cc1c[nH]c2ccccc12)C(=O)N/N=C/c1cccc2ccccc12)c1cccs1 (stereo not shown) | 5.65
COC(=O)CC1C(=O)NCCN1C(=O)Nc1ccccc1 (stereo not shown) | 3.75
CCOC(=O)N1CCN(C(=O)C2CCCN(S(C)(=O)=O)C2)CC1 (stereo not shown) | 14.7
Cc1cccc(/C=N/N2CCN(c3ccccc3)CC2)c1 | -4.38
CC(C)C(=O)NCCc1nc2ccccc2n1CCc1ccccc1 | 8.25
Cc1ccc(CN2CCNC(=O)C2CC(=O)NCC(F)(F)F)o1 (stereo not shown) | 14.1
COc1cccc(NC(=O)C(OC(=O)c2ccc([N+](=O)[O-])o2)c2ccccc2)c1 (stereo not shown) | -12.5
COCCNc1nnc(SCC(=O)NC(=O)c2ccccc2)s1 | 1.56
Cc1ccc(S(=O)(=O)N2CCN(c3ccccc3)CC2)cc1C(N)=O | -45.9
O=C(Cc1ccccc1)N1CCN(C/C=C/c2ccccc2)CC1 | -19.5
CCOC(=O)C1CCN(C(=O)/C=C/c2ccc(OC)cc2)CC1 | -17.9

SMILES | hERG current change (%, negative = inhibition) at 10uM [%]
O=C(C1=C[C@@H]2[C@H]3C(=O)N(c4cccc(Cl)c4)C(=O)[C@H]3[C@@H](C(=O)c3ccc(Cl)cc3)N2C=C1)c1ccccc1 | 9.73
Cc1ccc(SCC(=O)NC(C)c2ccccc2)cc1 (stereo not shown) | 1.94
N#C/C(=N\Nc1c(Cl)cccc1Cl)C(=O)NN | 8.57
CCc1ccccc1NC(=O)CSc1n[nH]c(C)c1[N+](=O)[O-] | -8.12
O=C(CCc1nc2ccccc2s1)Nc1ccccc1 | 16.3
NNC(=O)CNC(=O)CNS(=O)(=O)c1ccccc1 | 16.2
Cc1ccc2c(c1)NC(=O)C(CC(=O)NCCN(CC(C)C)CC(C)C)O2 (stereo not shown) | -24.7
CCN(CC)CCCn1c(=S)[nH]c2cc(OC)c(OC)cc2c1=O | -2.6
COc1cc(NC(=O)COC(=O)c2cnccn2)c(C)cc1[N+](=O)[O-] | -15.1
C[C@H](NC(=O)N1CCn2c1nc1ccccc12)C(=O)NCCc1ccccc1 | -1.73
O=S(=O)(Nc1ccc2ccccc2n1)c1ccc2c(c1)CCO2 | 12.4
COc1ccc2nc3c(cc2c1)c(NC(=O)CC(C)C)nn3CC(C)C | 15.4
COc1cccc(C(=O)OCC(=O)c2c[nH]c3ccccc23)c1O | 15.3
Cc1cc(C)c(S(=O)(=O)N2CCN(C(=O)CCn3nc(C)c(C)c3C)CC2)c(C)c1 | -35.8
COc1ccc(-c2cc3ccc(OCC(N)=O)cc3oc2=O)cc1OC | 16.9
Cc1cc(=O)n2[nH]c(-c3ccc(F)cc3)nc2n1 | 14.5
CNS(=O)(=O)c1cccc(C(=O)OCC(=O)Nc2ccccc2F)c1 | 31.6
O=C(c1ccccc1)N1CCN(C(=O)c2cc3nc(-c4ccccc4)cc(C(F)(F)F)n3n2)CC1 | -51.1
Fc1ccc(NC(=S)N2CCc3[nH]c4ccccc4c3C2)cc1 | 6.75
Cc1c(Cl)c([N+](=O)[O-])nn1Cc1ccc(C(=O)N/N=C\c2cccc(Br)c2)o1 | -38.7
CCOC(=O)Nc1sc(NS(=O)(=O)c2ccc(C)cc2)nc1C | -3.5
CCOC(=O)Nc1sc(C)c(C)c1C(=O)OCC | 7.99

SMILES | hERG current change (%, negative = inhibition) at 10uM [%]
Cc1ccc2c(c1)C(=O)C(=O)N2CC(=O)Nc1ccccc1NC(=O)c1ccccn1 | 11.4
CCOC(=O)COc1ccc(S(=O)(=O)Nc2cccc(SC)c2)cc1 | -46.5
COc1ccc(C(=O)Nc2nccs2)cc1OC | -5.8
CCOC(=O)c1cnc(SC)nc1Sc1ccc(Cl)cc1Cl | 6.1
Cc1ccc(C(=O)C2CN3CCC2CC3)cc1.Cl (stereo not shown) | -37.4
CCS(=O)(=O)N1CCN(c2ccccc2F)CC1 | 17.6
CCn1cc(C(=O)NCc2ccc3c(c2)OCO3)c(=O)c2cc(F)c(N3CCN(C(=O)c4ccco4)CC3)cc21 | -1.93
COc1cc(C(CCN2CCCC2)c2c(OC)cc(OC)c3c(-c4ccccc4)cc(=O)oc23)cc(OC)c1OC (stereo not shown) | -70.8
Cc1ccc(S(=O)(=O)NCCC(=O)OCC(=O)NC(=O)c2cccn2C)cc1 | -12.5
COCCn1nnnc1C1(N(Cc2cc3cc(C)ccc3[nH]c2=O)CC2CCCO2)CCN(C)CC1 (stereo not shown) | -9.3
Cn1cc(CN2CCC(C(O)c3cccs3)CC2)c(-c2cccc(Cl)c2)n1 (stereo not shown) | -57
COc1ccccc1NC(=O)CC(NCc1ccccc1)C(=O)O (stereo not shown) | 7.4
Cc1ccc(-c2ccc(=O)n(CCC(=O)N3CCC4(CC3)OCCO4)n2)cc1 | -64.5
S=C(NNc1ccc2ccccc2c1)NC1CCCCC1 | 18
COc1ccc2[nH]c(C(=O)NCCCn3ccnc3)cc2c1 | -1.32
Cc1cccc(CSCc2ccc(C(=O)NC(C)C)o2)c1 | -8.27
CN(C)S(=O)(=O)c1ccc(NC(=O)CN2CCc3ccccc32)cc1 | 11.8
CCOc1ccc(NC(=O)C2CCCCN2S(=O)(=O)c2ccccc2)cc1 (stereo not shown) | -16.1
CCN(CC)c1ccc2nc3c4ccccc4c(=O)cc-3oc2c1 | 23
CCOc1ccc(C(=O)NCC(=O)NCC(c2ccc(OC)cc2)N2CCOCC2)cc1OCC (stereo not shown) | 6.93
Cc1cccc(N2CC(C)Cn3c2nc2c3c(=O)[nH]c(=O)n2C)c1 (stereo not shown) | -0.757
CN1C(=O)N(C)C(=O)C2(Cc3ccccc3N3CCCC32)C1=O (stereo not shown) | 13.7

SMILES | hERG current change (%, negative = inhibition) at 10uM [%]
Cc1cccc(Cc2ccc(Cl)nn2)c1 | 9.92
COC(=O)c1ccccc1N(C)S(=O)(=O)c1cc2c(cc1C)OCC(=O)N2 | -0.885
COc1ccccc1C(=O)Nc1sc2c(c1C#N)CCC2 | 26.8
CCN1/C(=C/C(C)=O)Sc2ccc(OC)cc21 | -12.7
CCOC(=O)C1(Cc2cccc(OC)c2)CCN(Cc2csc(C(C)=O)c2)CC1 | -41.1
CCCCSCCCNC(=O)CS(=O)Cc1nc(-c2cccc(C)c2)oc1C (stereo not shown) | -33.7
O=C(NCC1CCCO1)c1ccc2c(=O)n(CCc3ccccc3)c(=O)[nH]c2c1 (stereo not shown) | 7.98
Cc1c(NC(=O)c2cc3nc(-c4ccc(Cl)cc4)cc(C(F)(F)F)n3n2)c(=O)n(-c2ccccc2)n1C | -55.3
CCCCn1c(N)c(N(CC(C)C)C(=O)CSc2nnc(-c3ccc(Cl)cc3)o2)c(=O)[nH]c1=O | -17.3
O=C(COC(=O)/C=C/c1ccc(OC(F)F)cc1)NC1CCCCC1 | 10.5
Cc1csc(SCC(=O)Nc2cccc(C)c2C)n1 | -13.9
COc1ccc(NS(=O)(=O)c2ccc(C)c(C(=O)NCCCN3CCCC3=O)c2)cc1 | 2.76
C/C(=N/Oc1nc(C)cc(C)n1)c1ccc(Br)cc1 | -26.7
COc1ccc(C(=O)NC(C)CCc2ccccc2)c(O)c1 (stereo not shown) | -55.5
CCOC(=O)c1ccc(NC(=S)Nc2ccc(C)cc2)cc1 | 17.4
Cc1cccc(NC(=O)CSc2nc3nc(C)cc(C)c3c(=O)[nH]2)c1 | 4.65
Cc1ccc(C(=O)NCCSc2ccc(Cl)cc2)cc1S(=O)(=O)Nc1ccccc1 | 12.9
CCOc1ccccc1OCCCNCc1ccco1.O=C(O)C(=O)O | -0.982
Cc1ccc(CN2CCSc3ccc(C(=O)NC4CCN(Cc5ccccc5)CC4)cc32)cc1 | 8.21
Cn1cnnc1SCC(=O)c1ccc2c(c1)CCCC2 | -5.75
CCOC(=O)CS(=O)(=O)c1ccccc1 | -3.19
CC(=O)OCC1OC(OC(C)=O)C(NC(=O)Cc2ccccc2)C(OC(C)=O)C1OC(C)=O (stereo not shown) | -5.33
